Data: the supplement of paper PMC11369174, “Proteome-scale characterisation of motif-based interactome rewiring by disease mutations” (Molecular Systems Biology, 2024)
Some of the results follow. This is a noisy data set.

Columns and labels:
Assay in all cases: mutation enrichment score (mutant vs wild-type peptide binding to bait); baits are purified protein domains named by gene / domain / UniProt id / residues; peptides come from disordered regions of human proteins; higher = mutation enhances binding relative to wild type
[1] = molecular target: MAP1LC3A_ATG8__Q9H492_2_121; conditions: wild-type window: …
[2] = molecular target: MAP1LC3B_ATG8__Q9GZQ8_2_119; conditions: paper call: no_effect, wild-type window: …
[3] = molecular target: MDM2_p53-binding-domain__Q00987_17_125; conditions: wild-type window: …
[4] = molecular target: NEDD4_WW_2_P46934_765_803; conditions: number of wild-type / mutant comparisons summed (bounds the score): 6; paper call: no_effect; wild-type window: …
Sequence of NEDD4_WW_2_P46934_765_803 (chain, as listed by the source): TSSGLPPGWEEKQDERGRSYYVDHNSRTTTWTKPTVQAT

[5] = molecular target: SMURF2_WW_3_Q9HAU4_298_330; conditions: number of wild-type / mutant comparisons summed (bounds the score): 6; paper call: no_effect; wild-type window: …
[6] = molecular target: WWTR1_WW__Q9GZV5_122_160; conditions: number of wild-type / mutant comparisons summed (bounds the score): 6; paper call: no_effect; wild-type window: …
Sequence of WWTR1_WW__Q9GZV5_122_160 (chain, as listed by the source): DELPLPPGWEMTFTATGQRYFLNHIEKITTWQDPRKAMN

[7] = molecular target: T1, MSN_FERM_1_P26038_1_322; conditions: wild-type window: …
T1 chain: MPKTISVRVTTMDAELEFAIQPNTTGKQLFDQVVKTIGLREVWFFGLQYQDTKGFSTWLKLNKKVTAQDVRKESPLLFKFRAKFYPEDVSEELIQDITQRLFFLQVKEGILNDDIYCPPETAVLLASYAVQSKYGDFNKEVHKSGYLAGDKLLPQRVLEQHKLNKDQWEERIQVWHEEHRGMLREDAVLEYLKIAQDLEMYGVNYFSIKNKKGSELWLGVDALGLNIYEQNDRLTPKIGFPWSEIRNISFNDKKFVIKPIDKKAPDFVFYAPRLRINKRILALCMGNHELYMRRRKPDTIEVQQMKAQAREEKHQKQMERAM

[8] = molecular target: T2, RDX_FERM_1_P35241_5_295; conditions: paper call: no_effect, wild-type window: …
T2 chain: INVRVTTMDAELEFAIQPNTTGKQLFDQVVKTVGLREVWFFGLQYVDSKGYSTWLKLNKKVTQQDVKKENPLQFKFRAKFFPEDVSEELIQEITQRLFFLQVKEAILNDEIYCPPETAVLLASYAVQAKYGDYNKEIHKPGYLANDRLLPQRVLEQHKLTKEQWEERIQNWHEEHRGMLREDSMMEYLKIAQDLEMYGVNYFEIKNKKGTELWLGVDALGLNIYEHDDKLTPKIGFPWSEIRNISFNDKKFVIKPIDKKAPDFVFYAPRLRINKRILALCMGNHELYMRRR

[9] = molecular target: USP7_MATH-TRAF__Q93009_53_206; conditions: number of wild-type / mutant comparisons summed (bounds the score): 10; paper call: enhanced; wild-type window: …
Sequence of USP7_MATH-TRAF__Q93009_53_206 (chain, as listed by the source): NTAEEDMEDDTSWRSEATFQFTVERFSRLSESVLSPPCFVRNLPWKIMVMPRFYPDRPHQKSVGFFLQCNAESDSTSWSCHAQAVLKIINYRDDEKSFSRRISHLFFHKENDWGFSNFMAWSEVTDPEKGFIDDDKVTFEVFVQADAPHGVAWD

[10] = number of wild-type / mutant comparisons summed (bounds the score): 12, paper call: no_effect
[11] = number of wild-type / mutant comparisons summed (bounds the score): 6
[12] = number of wild-type / mutant comparisons summed (bounds the score): 12
[13] = number of wild-type / mutant comparisons summed (bounds the score): 8, paper call: no_effect
[14] = number of wild-type / mutant comparisons summed (bounds the score): 6, paper call: enhanced
[15] = number of wild-type / mutant comparisons summed (bounds the score): 6, paper call: no_effect

## GHSKILGETSLMRTLCGTPTSLAPEVLVSVGTAGYNRAVDC [Y390S Y390S]
[1]; [10]
  mutation enrichment score: -3

## MAEPRQEFEVMEDHAGTYGLHDRKD [R5H R5H]
[1]; [10]
  mutation enrichment score: 4.5

## KTNLAAYVPLLTQGWAEILVPRPTGNTSWLMSLENPLSPFS [R1200P R1200P]
[1]; number of wild-type / mutant comparisons summed (bounds the score): 18, paper call: enhanced
  mutation enrichment score: 13

## HSSCSSPSRDCQAERKEGSLLHSDDAGDYEQLFSSTQGEIS [P975L P975L]
[2]; [11]
  mutation enrichment score: 3.1

## RERESLVKKKVAEYTILEGKFQKTLIDLEKREQQLASVESE [L712F L712F]
[2]; [11]
  mutation enrichment score: -2

## TLGWSKPVYDGGSAVTGYVVKIRQGEEEEWTTVSTKGEVRT [E28131K E28131K]
[2]; [11]
  mutation enrichment score: -3

## YDADSDFEVLMKTAHGHLVPNRVDKDKEATKPEFNNHKDYA [D1357N D1357N]
[2]; [11]
  mutation enrichment score: 1

## QLGLRRLLLLLSPQSPTHGLQSLATHTLHALTPLL [R404Q R404Q]
[2]; [11]
  mutation enrichment score: -2

## PYSARESLSEVQSLSSFQSELCDDNGYHWDTSDWMPSVPLP [S4375L S4375L]
[2]; [12]
  mutation enrichment score: 4

## STIQVAPANYPNEDGFSPNNGDMFVDLPFPDDMDNDIGILM [D2023G D2023G]
[2]; [12]
  mutation enrichment score: -3

## HTTRSVSMQDEGKTHSITFKNLSIDDTSQIRVEAMGMSSEA [D12916N D12916N]
[2]; [12]
  mutation enrichment score: 0

## NDRLAVYIDRVRSLETENAGRRLRITESEEVVSREVSGIKA [L59R L59R]
[3]; [13]
  mutation enrichment score: 2

## RQMQQQAATAQAAAAAQAAAMAGNIPGPGSVGGIAPAISLS [V465M V465M]
[3]; [13]
  mutation enrichment score: -2

## DRYSVGLLDMTKQKEFFDVWLVLMGEVPPYSGPRTPDGREI [P293L P293L]
[3]; number of wild-type / mutant comparisons summed (bounds the score): 16, paper call: enhanced
  mutation enrichment score: 7
[4]
  mutation enrichment score: -3
[5]
  mutation enrichment score: -5
[6]
  mutation enrichment score: -2

## GTSLGPGLGPRVGPLLVRRGVTLPVPGPRVLETRPALQGLL [E129V E129V]
[3]; number of wild-type / mutant comparisons summed (bounds the score): 16, paper call: no_effect
  mutation enrichment score: 2

## APPEELSMFQLPTLNFSPEQGASVCETLEETGDIERLGRFL [V92G V92G]
[7]; [14]
  mutation enrichment score: 6
[8]; [11]
  mutation enrichment score: 4

## FNFETFGNSMICLFQITTSADWDGLLAPILNSKPPDCDPNK [G1725D G1725D]
[7]; [14]
  mutation enrichment score: 6

## TSDSDQQAYLVQRGAEDRDWQQQRNIPIHSCPKCGEVLPDI [R545Q R545Q]
[7]; [15]
  mutation enrichment score: 2.6

## KLDELDCLIKGILYIDSVGFSGRSQCYYFENPADSEKCQKL [N355S N355S]
[7]; [15]
  mutation enrichment score: -2

## DELDCLIKGILYIDSVGFNGQSQCYYFENPADSEKCQKLPF [R357Q R357Q]
[7]; [15]
  mutation enrichment score: -2

## CRPQENISSRWMVPTSVERLGEGGSIPKVLRSSVRVAQKGE [R1176G R1176G]
[7]; [15]
  mutation enrichment score: 4.3
[9]
  mutation enrichment score: 6

## LAVHGAGNLVNTYYDFSKGIGHKKSDDRTLVDRILEPQDVV [D112G D112G]
[7]; [15]
  mutation enrichment score: -4.2
[8]; [11]
  mutation enrichment score: -3.9

## LAVHGAGNLVNTYYDFSKGINHKKSDDRTLVDRILEPQDVV [D112N D112N]
[7]; [15]
  mutation enrichment score: -5
[8]; [11]
  mutation enrichment score: -4

## GNLVNTYYDFSKGIDHKKSDGRTLVDRILEPQDVVRFGVFL [D118G D118G]
[7]; [15]
  mutation enrichment score: -1.1
[8]; [12]
  mutation enrichment score: -3.1

## NLVNTYYDFSKGIDHKKSDDGTLVDRILEPQDVVRFGVFLY [R119G R119G]
[7]; [15]
  mutation enrichment score: -2
[8]; [12]
  mutation enrichment score: -3.3

## KHPDRFAYPIPHTTRPPKKDKENGKNYYFVSHDQMMQDISN [E782K E782K]
[7]; [15]
  mutation enrichment score: -1

## PKKDEENGKNYYFVSHDQMMEDISNNEYLEYGSHEDAMYGT [Q798E Q798E]
[7]; [15]
  mutation enrichment score: -3

## IPHPHLHQYEVSSSLGYTSTGDVLENMMEPPQRDSSAPGRF [R555G R555G]
[7]; [15]
  mutation enrichment score: 2.9
[8]; [11]
  mutation enrichment score: 3

## EEERRESHHLRSPAYSVSTIQPREDLLSPVQDADRFYRGIL [E839Q E839Q]
[7]; [15]
  mutation enrichment score: -5

## PPEELSMFQLPTLNFSPEQVDSVCETLEETGDIERLGRFLW [A93D A93D]
[7]; [15]
  mutation enrichment score: 5
[8]; [11]
  mutation enrichment score: 3

## GRSAGRSGRSGSFLYQVSTHKQSESAHGRTGTSTGGRQGSH [E2422K E2422K]
[7]; [15]
  mutation enrichment score: 5
[8]; [11]
  mutation enrichment score: 2

## SGPGLSPGMVRANLPQSFQVNTSKAGVAPLQVKVQGPKGLV [D1474N D1474N]
[7]; [15]
  mutation enrichment score: 3

## SSRACDCDQQIDSCTYEAMYDIQSQAPSITESSTFGEGNLA [N736D N736D]
[7]; [15]
  mutation enrichment score: -4
[8]; [11]
  mutation enrichment score: -5.6

## KSPDFEEVTDRSQLDISEPYEVYRIVPEEEQKCKLGVATAG [K108E K108E]
[7]; [15]
  mutation enrichment score: -2

## GEDYQYIERGETYCLYLPETLPEDGGEYMCKAVNNKGSAAS [F645L F645L]
[7]; [15]
  mutation enrichment score: 1

## GEEVSIRNSPTDTILFIRAAHRVHSGTYQVTVRIENMEDKA [R1036H R1036H]
[7]; [15]
  mutation enrichment score: -1

## SEAEGESWYPTNMEELVTVDKVGEEEDFIVEPDIPELEEIV [E913K E913K]
[7]; [15]
  mutation enrichment score: -2

## EQSEKAAMYDIISSPSKDSTNLTLRLSRVRSSDMDQQEDMI [K357N K357N]
[7]; [15]
  mutation enrichment score: -1.3
[8]; [11]
  mutation enrichment score: 0.085

## QSMLQNDGKCCPFMESMLRYDVYGGENEVIPEVLRKSHSHF [E608D E608D]
[7]; [15]
  mutation enrichment score: 1.5

## LHQSTYQRYDVDDPFSVEEGVSYATEGESQEDWGGPTEDKG [F708V F708V]
[7]; [15]
  mutation enrichment score: 4
[8]; [11]
  mutation enrichment score: 2

## IHYLDIVDCKSYDTGEVKVTVENPEGVIEHKVKLEIQQRED [A1914V A1914V]
[7]; [15]
  mutation enrichment score: 4

## TDTILFIRAARRVHSGTYQVMVRIENMEDKATLVLQVVDKP [T1046M T1046M]
[7]; [10]
  mutation enrichment score: -2
[8]; [12]
  mutation enrichment score: -2

## TDTILFIRAARRVHSGTYQVRVRIENMEDKATLVLQVVDKP [T1046R T1046R]
[7]; [10]
  mutation enrichment score: -2
[8]; [12]
  mutation enrichment score: -2
